# The entries are a selection whose mix differs from that of the whole data set. The list includes weakly bound sequences.
# Assays:
# Test in all cases: protein-binding microarray (PBM)
# Details in all cases: PBM: ~300 nM protein, 6 mM HEPES pH 7.8, 80 mM KCl, 0.5 mM EDTA, 0.5 mM EGTA, 6% glycerol, 35 ng/ul poly-dIdC, 1% milk, 1 h, room temperature; Ap Aiptasia and Nv Nematostella (sea anemones) / Co Capsaspora / Aq Amphimedon (sponge) / Dm Drosophila / Hu human; RHD is the Rel homology domain; high values mean tight binding; most listed sequences are background and not binding sites; double strand, one strand shown
# GST-Ap-NF-kB RHD = target: T1, GST-Ap-NF-kB RHD (UniProt A0A913YAJ5)
# T1 sequence: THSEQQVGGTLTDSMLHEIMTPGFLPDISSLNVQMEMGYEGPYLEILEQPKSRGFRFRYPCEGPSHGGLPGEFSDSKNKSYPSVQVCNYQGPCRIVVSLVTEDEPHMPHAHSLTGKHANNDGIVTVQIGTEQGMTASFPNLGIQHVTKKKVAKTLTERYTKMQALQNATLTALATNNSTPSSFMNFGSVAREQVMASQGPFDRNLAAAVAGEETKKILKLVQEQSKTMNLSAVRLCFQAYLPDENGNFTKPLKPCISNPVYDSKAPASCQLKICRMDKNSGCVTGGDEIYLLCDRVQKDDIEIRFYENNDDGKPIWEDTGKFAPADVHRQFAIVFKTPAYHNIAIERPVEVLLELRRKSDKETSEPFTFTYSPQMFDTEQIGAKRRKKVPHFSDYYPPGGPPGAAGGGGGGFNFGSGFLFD
# [1] = target: T2, GST-Nv-NF-kB (Cys allele) (UniProt E5G601)
# T2 sequence: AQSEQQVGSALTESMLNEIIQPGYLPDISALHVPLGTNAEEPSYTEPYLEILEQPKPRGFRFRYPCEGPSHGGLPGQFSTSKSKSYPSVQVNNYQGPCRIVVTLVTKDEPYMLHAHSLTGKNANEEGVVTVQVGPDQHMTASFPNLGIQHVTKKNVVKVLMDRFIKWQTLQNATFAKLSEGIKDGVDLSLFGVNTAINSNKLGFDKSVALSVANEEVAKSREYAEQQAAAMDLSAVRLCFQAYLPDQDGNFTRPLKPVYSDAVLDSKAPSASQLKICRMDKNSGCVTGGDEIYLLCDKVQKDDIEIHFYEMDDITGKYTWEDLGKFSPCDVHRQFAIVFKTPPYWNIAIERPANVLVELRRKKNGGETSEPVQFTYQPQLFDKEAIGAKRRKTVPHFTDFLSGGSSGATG
# GST-Co-NF-kB = target: T3, GST-Co-NF-kB (UniProt F1ARL5)
# T3 sequence: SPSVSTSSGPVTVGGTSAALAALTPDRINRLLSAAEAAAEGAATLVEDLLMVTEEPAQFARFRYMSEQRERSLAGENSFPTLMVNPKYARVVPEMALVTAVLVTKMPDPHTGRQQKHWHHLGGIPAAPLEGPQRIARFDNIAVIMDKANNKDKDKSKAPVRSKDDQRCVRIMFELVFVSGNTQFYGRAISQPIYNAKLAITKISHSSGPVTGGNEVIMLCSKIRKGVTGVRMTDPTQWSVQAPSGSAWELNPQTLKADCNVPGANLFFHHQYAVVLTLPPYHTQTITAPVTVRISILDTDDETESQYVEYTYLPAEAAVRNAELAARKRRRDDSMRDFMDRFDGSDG
# GST-Dm-Relish = target: T4, GST-Dm-Relish (UniProt Q94527)
# T4 sequence: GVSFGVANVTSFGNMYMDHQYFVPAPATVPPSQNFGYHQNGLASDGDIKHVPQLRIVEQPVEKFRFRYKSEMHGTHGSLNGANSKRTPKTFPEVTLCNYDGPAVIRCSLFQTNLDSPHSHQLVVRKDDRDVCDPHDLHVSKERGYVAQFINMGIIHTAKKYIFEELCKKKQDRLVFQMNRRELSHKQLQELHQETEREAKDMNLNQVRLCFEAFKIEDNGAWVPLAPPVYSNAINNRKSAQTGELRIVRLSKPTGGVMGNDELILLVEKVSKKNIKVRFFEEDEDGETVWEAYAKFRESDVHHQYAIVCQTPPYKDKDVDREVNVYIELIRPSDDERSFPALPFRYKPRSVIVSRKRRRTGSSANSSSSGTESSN
# GST-Aq-NF-kB = target: T5, GST-Aq-NF-kB (UniProt A9Y5G7)
# T5 sequence: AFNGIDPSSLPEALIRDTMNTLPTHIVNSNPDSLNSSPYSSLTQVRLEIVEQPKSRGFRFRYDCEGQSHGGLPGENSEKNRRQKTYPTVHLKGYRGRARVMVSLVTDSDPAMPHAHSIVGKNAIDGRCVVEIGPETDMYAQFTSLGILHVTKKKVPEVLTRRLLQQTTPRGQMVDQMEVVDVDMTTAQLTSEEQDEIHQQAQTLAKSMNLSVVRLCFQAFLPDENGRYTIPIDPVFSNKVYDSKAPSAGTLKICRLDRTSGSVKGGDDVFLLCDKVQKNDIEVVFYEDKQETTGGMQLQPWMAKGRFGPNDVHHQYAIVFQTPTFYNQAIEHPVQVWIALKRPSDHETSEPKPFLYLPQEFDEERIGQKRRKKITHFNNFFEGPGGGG
Sequence,binding signal (GST-Ap-NF-kB RHD) [z-score],binding signal [1] [z-score],binding signal (GST-Co-NF-kB) [z-score],binding signal (GST-Dm-Relish) [z-score],binding signal (GST-Aq-NF-kB) [z-score]
CCGATTAACATCACCAATGATACTGATGTTAATCGGGTCTTGATTCGCTTGACGCTGCTG,-0.333,-0.0209,-0.34,0.0369,-0.413
CCGATTAACATCACGCATACGTATGATGTTAATCGGGTCTTGATTCGCTTGACGCTGCTG,-1.3,-0.198,-0.236,-0.25,-0.473
CCGATTAACATCAGAAAAAGGCATGATGTTAATCGGGTCTTGATTCGCTTGACGCTGCTG,-0.115,0.0931,0.0662,-0.192,0.0484
CCGATTAACATCATTGCATCGAGTGATGTTAATCGGGTCTTGATTCGCTTGACGCTGCTG,-0.339,-0.631,-0.537,0.244,-0.406
CCGATTAACATCACCCCGAACGCTGATGTTAATCGGGTCTTGATTCGCTTGACGCTGCTG,1.59,0.14,2.02,0.832,0.901
CCGATTAACATCAAGCGAGTTCCTGATGTTAATCGGGTCTTGATTCGCTTGACGCTGCTG,-0.418,-0.511,0.224,-0.405,-0.424
CCGATTAACATCAACACCGGCTTTGATGTTAATCGGGTCTTGATTCGCTTGACGCTGCTG,0.277,-0.182,-1.2,-1.27,-0.256
CCGATTAACATCAAAGCACTTTTTGATGTTAATCGGGTCTTGATTCGCTTGACGCTGCTG,-0.593,0.127,-0.513,0.824,-0.315
CCGATTAACATCACATCCTTATTTGATGTTAATCGGGTCTTGATTCGCTTGACGCTGCTG,-0.69,-1.26,-0.0131,-0.371,-0.333
